Assay results reported in the RNAGym collection of RNA variant scans (doi:10.7554/elife.90254).
Read counts are not given, so values of variants with three or more changes are uncertain.

B1: LINE1-mini (parent)
chain: GGCAGAGCUCAACACAGCGUGGCAAAGUGGCUGUGGCUAGACUGCC

Variants of: B1
Test: self-cleavage, relative activity (ratio to wild type); higher = more cleavage; in vitro, sequencing; the parent is a self-cleaving ribozyme

Variant | self-cleavage
GGCUGAGCUGAACACAGCGUGGCAAAGUGGCUGUGCCUAGACUCCC [A4U C10G G36C G44C] | 0.02
GGCUGAGCUCAAUAUAGCGUGGCAAAGUGGCUGUGGCUAGACUGCC [A4U C13U C15U] | 0.08
GGCUGAGCUUAACACCGCGUGGCAAAGUGGAUGUCGCUAGACUGCC [A4U C10U A16C C31A G35C] | 0.01
GGCUCAGCUCCGCACAGCGUGGCAAAGUGGCUAUGGCUAGACUGCC [A4U G5C A11C A12G G33A] | 0.03
GGCUGAGUUCAAUACAGCGUGGCAAAGUGGCUGUGGCUAGUCUUCC [A4U C8U C13U A41U G44U] | 0.64
GGCUGAGCUCAAAACAGCGUGCCAAAGUUGCUGUGGCAAGACUGCC [A4U C13A G22C G29U U38A] | 0
GGCUAAGCUAAACACAGCGUCGCAAAGUGGCUGUGGUUAGACUGCC [A4U G5A C10A G21C C37U] | 0.01
GGCUGAGCUAAACACAGCGAGGCAAAGUGGCUGUGGAUAGACUGCC [A4U C10A U20A C37A] | 0.02
GGCUGAGCUGAACACACAGUGGCAACGCGGGUGUGGCUAAACUGCC [A4U C10G G17C C18A A26C U28C C31G G40A] | 0.01
GGCUGAGCUAAACGCAGCGUGGCAAACUUGAUGUAGCUAUACUGCC [A4U C10A A14G G27C G29U C31A G35A G40U] | 0.01
GGCUGAGCUCAACAAAGCGUGGUAAAGUGGCUGUGGCUAGACUGCC [A4U C15A C23U] | 0.07
GGCUCAGCUAAACACAGCGUGGCAAAGUGGCUGUGGCUAGACUGCC [A4U G5C C10A] | 0.01
GGCUGAGCUCAACACAGCGUGGCAAAGUGGCUGUGGAUAGACUGCU [A4U C37A C46U] | 0.01
GGCUGAGCUGAACACAGCGAGGCAAAUUUGCUGUGGCUAGACUGCC [A4U C10G U20A G27U G29U] | 0.03
GGCUGAGCUCAAAACAGCGUGGCAAAGUGGCGGUGGCUAGACUGCC [A4U C13A U32G] | 0.03
GGCUGAGCUCAAUACAGCGUGGCAAAGUGGCUGUGGCUAGACUGGC [A4U C13U C45G] | 0.15
GGCUCAGCUCAACACAGCGUGACAAACUGGCUGUGGCUAGACUGCC [A4U G5C G22A G27C] | 0.03
GGCUGAGCUCAACACAGGGUGGCAUAGUGGCUGUGGCUAGACUGCC [A4U C18G A25U] | 0.04
GGCUGAGCUCAACACAGCGUGGAAAAGUCGCUGUGGCUAGACUGCC [A4U C23A G29C] | 0.43

Variant | self-cleavage
GGCUGAGCUCAACACAGCGUGGGAAAGUGGCUGUGGUUAGACUGCC [A4U C23G C37U] | 0.08
GGCUGAGCUCAACACAGCGUGGCAAAGUGGUUGUGGCCAGACUACC [A4U C31U U38C G44A] | 0.05
GGCUGAGCUCAACAGAGUGUAGCCAAUUGGCUGUGACUAGACUGCC [A4U C15G C18U G21A A24C G27U G36A] | 0
GGCUGAGCUCAACAGAGCGUGGCCAAGUGGCUGUCGCUAGACUGCC [A4U C15G A24C G35C] | 0.01
GGCUGAGCUAAACACAGCGUGGCGAAGUGGCUGUGGCUAGACUGCC [A4U C10A A24G] | 0.02
GGCUCAGCUCAACACAGCGUGGCAAAGUGGCUGUGGUUAGACUGCC [A4U G5C C37U] | 0.02
GGCUCAGCUCAACACAGCGUGGCAAAGUGGCUGUGGAUAGACUGCC [A4U G5C C37A] | 0.08
GGCUAAGCUCAACACAGCGUGGGAAAGUGGCUAUGGCUAUACUGCC [A4U G5A C23G G33A G40U] | 0.16
GGCUAACCUCCACACAGCGUGGCAAAGUGGCUGUGGCUAGACUGCC [A4U G5A G7C A11C] | 0.07
GGCUGAGCUUAACACAGCGUGGCAAAGUAGCUGUGGCUAGACUGCC [A4U C10U G29A] | 0.1
GGCUGAGCUCAAUACAGCGGGGCAGAGUGGCUGUGACUAGUCUGAC [A4U C13U U20G A25G G36A A41U C45A] | 0.02
GGCUGAGCUUAACACAGCGUGGCAAAGUGGCUGUGGCAAGGCUUCC [A4U C10U U38A A41G G44U] | 0.03
GGCUGAGCUCAACACAGCGUGGCAAAGUGGAUGUGGCUAGACUGAC [A4U C31A C45A] | 0
GGCUGAGCUCAACACAGUGCGGCAAAGUGGCUGUGGCUAGACUGCC [A4U C18U U20C] | 0.06
GGCUGAGCUAAACACAGUGUGGCAAAGUGGCUGUGGCUAGACUGCC [A4U C10A C18U] | 0.07
GGCUGAGCUAAACACAGCGUCGCAAAGUGGCUGUGGCUAGACUGUC [A4U C10A G21C C45U] | 0
GGCUGAGCUCAACACAGAGUGGCAAAGUGGCUGUGGCUAGACGGCA [A4U C18A U43G C46A] | 0.02
GGCUGAGCUCAACACAGCGUGGGAAAGUGGCUGUGUUUAGACUGCC [A4U C23G G36U C37U] | 0.03
GGCUGAGCUUAACACAGCGUGUCAAAGUGGCUGUGGCUAGACUGCC [A4U C10U G22U] | 0.1

Variant | self-cleavage
GGCUGAGCUCAAAACAGCGUGGCAUAGUGGCUGUGGCUAGUUUGCC [A4U C13A A25U A41U C42U] | 0.02
GGCUGAGCUGAACACAGCGUGGCAAAGUGGCUGUCGAUAGACUGCC [A4U C10G G35C C37A] | 0.03
GGCUGAGCUCAACACAGCGUGGCAAAGUGGUUGUGGCUAGAAUGCC [A4U C31U C42A] | 0.05
GGCUCAGCUCAACACCGCGUGGCAAAGUGGCUGUGGCUAGACUGCA [A4U G5C A16C C46A] | 0.03
GGCUGAGCUCAAGAGAGCGUGGCGAAGUGGCUGUGACUAGACUGCC [A4U C13G C15G A24G G36A] | 0.01
GGCUGAGCUUAACACAGAGUGGCAAAUCGGCUGUGGCUAGACUGCC [A4U C10U C18A G27U U28C] | 0.24
GGCUCAGCUCAACACACCGUGGCAAAGAGGCUGUGGCGAGACUGUC [A4U G5C G17C U28A U38G C45U] | 0.05
GGCUGAGCUUAUCACAGCGUAGCAAAGUGGCUGUGGCUAAACUGCC [A4U C10U A12U G21A G40A] | 0.06
GGCUGAGCUCAAAACAGCGUGGCAAACUGGCUGUGGCUAGACUACG [A4U C13A G27C G44A C46G] | 0.07
GGCUGAGCUCAACAAAGCGUGGCAAAGUGGCUGUGGCCAGACUGCC [A4U C15A U38C] | 0.11
GGCUGAGCUCAACACAGCGUGGAAAAGUCGCAGUGGCUAGACUGCC [A4U C23A G29C U32A] | 0.03
GGCUGAGCUCAACAUAGCGUUGCAAAAUGGCUGUGGCUAGACUGCC [A4U C15U G21U G27A] | 0.25
GGCUGAGCUCAAAACAGAGUGGCAAAGUGGCUGUGGCCAGACUGCC [A4U C13A C18A U38C] | 0.02
GGCUGAGCUCAACAUAGCGUGGCAUAGUGGCUGUGGCUAGGCUGCC [A4U C15U A25U A41G] | 0.08
GGCUGAGCUCAACACAGAGUGGCAAAGUGGGUGUGGCUAGACUACC [A4U C18A C31G G44A] | 0.04
GGCUGAGCUCAACACAGCGUGGCAAAGUGGCUGUGGUUAGUGUGCC [A4U C37U A41U C42G] | 0.02
GGCUGAGCUCAACAUAACGUGGCAAAGUGGCUGUGGCUAGACUGCC [A4U C15U G17A] | 0.03
GGCUGAGCUCAACAAAGCGUGGCAAAGUAGAUGUGGCUAGCCUGCC [A4U C15A G29A C31A A41C] | 0.02
